# Measured values: the supplement of paper PMC8728848
# This is one part of the list.
# B1: PfulAvr4 (Pseudocercospora fuligena) (protein)
# chain: HHHHHHDYKDDDDKTYVQDKTPAFVCPAADIKTTKCLGPKDCLYPSPKTCNGYIQCSPADDSYLTGIIHEMPCPSGLLWNDNKKWCDWPENTTCGLVKSAGATEVDATKQGPTPGKYHG
# Assays:
# Test in all cases: glycan array binding signal (z-score within array); higher = stronger binding
# Conditions in all cases: glycan notation: IUPAC condensed, linker removed
# [1] = target: Neu5Ac(a2-3)Gal(b1-3)GalNAc
# Method in brief: (§1)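 Arrays were curated from the Consortium for Functional Glycomics database, 3228 in total, and kept only where the protein sequence was available. Binding is expressed as a within-array Z-score. This score was averaged across arrays of the same protein sequence at different concentrations or buffers and across linkers, and negative values can be read as non-binding.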
# [2] = target: Neu5Ac(a2-3)Gal(b1-3)GalNAc(b1-3)Gal(a1-4)Gal(b1-4)Glc
# Method in brief: as §1
# [3] = target: Neu5Ac(a2-3)Gal(b1-3)GalNAc(b1-4)Gal(b1-4)Glc
# Method in brief: as §1
# [4] = target: Neu5Ac(a2-3)Gal(b1-3)GalNAc(b1-4)[Neu5Ac(a2-3)]Gal(b1-4)Glc
# Method in brief: as §1
# [5] = target: Neu5Ac(a2-3)Gal(b1-3)GalNAc(b1-4)[Neu5Ac(a2-8)Neu5Ac(a2-3)]Gal(b1-4)Glc
# Method in brief: as §1
# [6] = target: Neu5Ac(a2-3)Gal(b1-3)GalNAc6S
# Method in brief: as §1
# [7] = target: Neu5Ac(a2-3)Gal(b1-3)GlcNAc
# Method in brief: as §1
# [8] = target: Neu5Ac(a2-3)Gal(b1-3)GlcNAc(b1-2)Man
# Method in brief: as §1
# [9] = target: Neu5Ac(a2-3)Gal(b1-3)GlcNAc(b1-2)Man(a1-3)[GlcNAc(b1-4)][Neu5Ac(a2-3)Gal(b1-3)GlcNAc(b1-2)Man(a1-6)]Man(b1-4)GlcNAc(b1-4)GlcNAc
# Method in brief: as §1
# [10] = target: Neu5Ac(a2-3)Gal(b1-3)GlcNAc(b1-2)Man(a1-3)[Neu5Ac(a2-3)Gal(b1-3)GlcNAc(b1-2)Man(a1-6)]Man(b1-4)GlcNAc(b1-4)GlcNAc
# Method in brief: as §1
# [11] = target: Neu5Ac(a2-3)Gal(b1-3)GlcNAc(b1-2)[Neu5Ac(a2-3)Gal(b1-3)GlcNAc(b1-4)]Man(a1-6)[Neu5Ac(a2-3)Gal(b1-3)GlcNAc(b1-2)Man(a1-3)]Man(b1-4)GlcNAc(b1-4)GlcNAc
# Method in brief: as §1
# [12] = target: Neu5Ac(a2-3)Gal(b1-3)GlcNAc(b1-3)Gal(b1-3)GlcNAc
# Method in brief: as §1
# [13] = target: Neu5Ac(a2-3)Gal(b1-3)GlcNAc(b1-3)Gal(b1-4)GlcNAc
# Method in brief: as §1
# [14] = target: Neu5Ac(a2-3)Gal(b1-3)GlcNAc(b1-3)GalNAc
# Method in brief: as §1
# [15] = target: Neu5Ac(a2-3)Gal(b1-3)GlcNAc(b1-6)GalNAc
# Method in brief: as §1
# [16] = target: Neu5Ac(a2-3)Gal(b1-3)GlcNAc6S
# Method in brief: as §1
# [17] = target: Neu5Ac(a2-3)Gal(b1-3)[Fuc(a1-4)]GlcNAc
# Method in brief: as §1
# [18] = target: Neu5Ac(a2-3)Gal(b1-3)[Fuc(a1-4)]GlcNAc(b1-3)Gal(b1-3)[Fuc(a1-4)]GlcNAc
# Method in brief: as §1
# [19] = target: Neu5Ac(a2-3)Gal(b1-3)[Fuc(a1-4)]GlcNAc(b1-3)Gal(b1-4)[Fuc(a1-3)]GlcNAc
# Method in brief: as §1
# [20] = target: Neu5Ac(a2-3)Gal(b1-3)[GlcNAc(b1-6)]GalNAc
# Method in brief: as §1
# [21] = target: Neu5Ac(a2-3)Gal(b1-3)[Neu5Ac(a2-6)]GalNAc
# Method in brief: as §1
# [22] = target: Neu5Ac(a2-3)Gal(b1-3)[Neu5Ac(a2-6)]GlcNAc(b1-3)[Fuc(a1-3)[Gal(b1-4)]GlcNAc(b1-6)]Gal(b1-4)Glc
# Method in brief: as §1
# [23] = target: Neu5Ac(a2-3)Gal(b1-3)]Neu5Ac(a2-3)Gal(b1-4)]GlcNAc
# Method in brief: as §1
# [24] = target: Neu5Ac(a2-3)Gal(b1-4)Glc
# Method in brief: as §1
# [25] = target: Neu5Ac(a2-3)Gal(b1-4)GlcNAc
# Method in brief: as §1
# [26] = target: Neu5Ac(a2-3)Gal(b1-4)GlcNAc(b1-2)Man
# Method in brief: as §1
# [27] = target: Neu5Ac(a2-3)Gal(b1-4)GlcNAc(b1-2)Man(a1-3)[GlcNAc(b1-4)][Neu5Ac(a2-3)Gal(b1-4)GlcNAc(b1-2)Man(a1-6)]Man(b1-4)GlcNAc(b1-4)GlcNAc
# Method in brief: as §1
# [28] = target: Neu5Ac(a2-3)Gal(b1-4)GlcNAc(b1-2)Man(a1-3)[Neu5Ac(a2-3)Gal(b1-4)GlcNAc(b1-2)Man(a1-6)]Man(b1-4)GlcNAc(b1-4)GlcNAc
# Method in brief: as §1
# [29] = target: Neu5Ac(a2-3)Gal(b1-4)GlcNAc(b1-2)Man(a1-3)[Neu5Ac(a2-3)Gal(b1-4)GlcNAc(b1-2)Man(a1-6)]Man(b1-4)GlcNAc(b1-4)[Fuc(a1-6)]GlcNAc
# Method in brief: as §1
# [30] = target: Neu5Ac(a2-3)Gal(b1-4)GlcNAc(b1-2)Man(a1-3)[Neu5Ac(a2-6)Gal(b1-4)GlcNAc(b1-2)Man(a1-6)]Man(b1-4)GlcNAc(b1-4)GlcNAc
# Method in brief: as §1
# [31] = target: Neu5Ac(a2-3)Gal(b1-4)GlcNAc(b1-2)[Neu5Ac(a2-3)Gal(b1-4)GlcNAc(b1-4)]Man(a1-3)[GlcNAc(b1-4)][Neu5Ac(a2-3)Gal(b1-4)GlcNAc(b1-2)[Neu5Ac(a2-3)Gal(b1-4)GlcNAc(b1-6)]Man(a1-6)]Man(b1-4)GlcNAc(b1-4)GlcNAc
# Method in brief: as §1
# [32] = target: Neu5Ac(a2-3)Gal(b1-4)GlcNAc(b1-2)[Neu5Ac(a2-3)Gal(b1-4)GlcNAc(b1-4)]Man(a1-3)[GlcNAc(b1-4)][Neu5Ac(a2-3)Gal(b1-4)GlcNAc(b1-4)Man(a1-6)]Man(b1-4)GlcNAc(b1-4)GlcNAc
# Method in brief: as §1
# [33] = target: Neu5Ac(a2-3)Gal(b1-4)GlcNAc(b1-2)[Neu5Ac(a2-3)Gal(b1-4)GlcNAc(b1-6)]Man(a1-6)[Neu5Ac(a2-3)Gal(b1-4)GlcNAc(b1-2)Man(a1-3)][GlcNAc(b1-4)]Man(b1-4)GlcNAc(b1-4)GlcNAc
# Method in brief: as §1
# [34] = target: Neu5Ac(a2-3)Gal(b1-4)GlcNAc(b1-3)Gal
# Method in brief: as §1
# [35] = target: Neu5Ac(a2-3)Gal(b1-4)GlcNAc(b1-3)Gal(b1-3)GlcNAc
# Method in brief: as §1
# [36] = target: Neu5Ac(a2-3)Gal(b1-4)GlcNAc(b1-3)Gal(b1-4)GlcNAc
# Method in brief: as §1
# [37] = target: Neu5Ac(a2-3)Gal(b1-4)GlcNAc(b1-3)Gal(b1-4)GlcNAc(b1-2)Man(a1-3)[Neu5Ac(a2-3)Gal(b1-4)GlcNAc(b1-3)Gal(b1-4)GlcNAc(b1-2)Man(a1-6)]Man(b1-4)GlcNAc(b1-4)GlcNAc
# Method in brief: as §1
# [38] = target: Neu5Ac(a2-3)Gal(b1-4)GlcNAc(b1-3)Gal(b1-4)GlcNAc(b1-3)Gal(b1-4)GlcNAc
# Method in brief: as §1
# [39] = target: Neu5Ac(a2-3)Gal(b1-4)GlcNAc(b1-3)Gal(b1-4)GlcNAc(b1-3)Gal(b1-4)GlcNAc(b1-2)Man(a1-3)[Neu5Ac(a2-3)Gal(b1-4)GlcNAc(b1-3)Gal(b1-4)GlcNAc(b1-3)Gal(b1-4)GlcNAc(b1-2)Man(a1-6)]GalNAc
# Method in brief: as §1
# [40] = target: Neu5Ac(a2-3)Gal(b1-4)GlcNAc(b1-3)Gal(b1-4)GlcNAc(b1-3)GalNAc
# Method in brief: as §1
# [41] = target: Neu5Ac(a2-3)Gal(b1-4)GlcNAc(b1-3)Gal(b1-4)GlcNAc(b1-3)[Neu5Ac(a2-3)Gal(b1-4)GlcNAc(b1-3)Gal(b1-4)GlcNAc(b1-6)]GalNAc
# Method in brief: as §1
# [42] = target: Neu5Ac(a2-3)Gal(b1-4)GlcNAc(b1-3)Gal(b1-4)GlcNAc(b1-6)[Gal(b1-3)]GalNAc
# Method in brief: as §1
# [43] = target: Neu5Ac(a2-3)Gal(b1-4)GlcNAc(b1-3)Gal(b1-4)[Fuc(a1-3)]GlcNAc
# Method in brief: as §1
# [44] = target: Neu5Ac(a2-3)Gal(b1-4)GlcNAc(b1-3)GalNAc
# Method in brief: as §1
# [45] = target: Neu5Ac(a2-3)Gal(b1-4)GlcNAc(b1-3)[Neu5Ac(a2-3)Gal(b1-4)GlcNAc(b1-6)]GalNAc
# Method in brief: as §1
binder,measurement,setting,value
B1,glycan array binding signal (z-score),[1],-0.083
same,glycan array binding signal (z-score),[2],-0.164
same,glycan array binding signal (z-score),[3],-0.134
same,glycan array binding signal (z-score),[4],-0.118
same,glycan array binding signal (z-score),[5],0.032
same,glycan array binding signal (z-score),[6],-0.124
same,glycan array binding signal (z-score),[7],-0.137
same,glycan array binding signal (z-score),[8],-0.12
same,glycan array binding signal (z-score),[9],-0.093
same,glycan array binding signal (z-score),[10],1.27
same,glycan array binding signal (z-score),[11],-0.077
same,glycan array binding signal (z-score),[12],-0.097
same,glycan array binding signal (z-score),[13],-0.088
same,glycan array binding signal (z-score),[14],-0.179
same,glycan array binding signal (z-score),[15],-0.082
same,glycan array binding signal (z-score),[16],-0.115
same,glycan array binding signal (z-score),[17],-0.143
same,glycan array binding signal (z-score),[18],-0.104
same,glycan array binding signal (z-score),[19],-0.108
same,glycan array binding signal (z-score),[20],-0.161
same,glycan array binding signal (z-score),[21],-0.088
same,glycan array binding signal (z-score),[22],-0.081
same,glycan array binding signal (z-score),[23],-0.163
same,glycan array binding signal (z-score),[24],-0.088
same,glycan array binding signal (z-score),[25],-0.104
same,glycan array binding signal (z-score),[26],0.348
same,glycan array binding signal (z-score),[27],-0.112
same,glycan array binding signal (z-score),[28],-0.065
same,glycan array binding signal (z-score),[29],-0.084
same,glycan array binding signal (z-score),[30],0.081
same,glycan array binding signal (z-score),[31],-0.137
same,glycan array binding signal (z-score),[32],-0.056
same,glycan array binding signal (z-score),[33],-0.064
same,glycan array binding signal (z-score),[34],-0.129
same,glycan array binding signal (z-score),[35],-0.121
same,glycan array binding signal (z-score),[36],-0.155
same,glycan array binding signal (z-score),[37],-0.094
same,glycan array binding signal (z-score),[38],-0.119
same,glycan array binding signal (z-score),[39],0.179
same,glycan array binding signal (z-score),[40],-0.095
same,glycan array binding signal (z-score),[41],0.035
same,glycan array binding signal (z-score),[42],-0.174
same,glycan array binding signal (z-score),[43],-0.123
same,glycan array binding signal (z-score),[44],-0.086
same,glycan array binding signal (z-score),[45],0.019
